From the supplement of paper PMC10441789
The other results are listed elsewhere or left out. Antibody binding of pooled human sera (four to six donors per pool; dilution not stated) to peptides of the Trypanosoma cruzi antigen TSSA on microarrays. Quantile-normalised fluorescence in arbitrary units, mean of duplicate arrays; higher = more binding. No active / inactive call. The uninfected pools are read here as the healthy donors of the same country. The strongest signals lie near the top of the scale (about 60,000).

What was measured:
Experiment in all cases: antibody binding signal (normalised fluorescence) (arbitrary fluorescence units); higher = stronger serum antibody binding to peptide
[1] = tested on: pooled sera of chronic Chagas disease patients, Argentina
Experimental: (§1)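 Microarray of 15-residue peptides over residues 30-55 of Trypanosoma cruzi TSSAII, each with 1 to 10 substitutions at naturally variable positions, probed with one serum pool per country.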

[2] = tested on: pooled sera of chronic Chagas disease patients, Bolivia
Experimental: as §1

[3] = tested on: pooled sera of chronic Chagas disease patients, Brazil
Experimental: as §1

[4] = tested on: pooled sera of chronic Chagas disease patients, Colombia
Experimental: as §1

[5] = tested on: pooled sera of chronic Chagas disease patients, Mexico
Experimental: as §1

[6] = tested on: pooled sera of chronic Chagas disease patients, USA
Experimental: as §1

[7] = tested on: pooled sera of uninfected people, Argentina
Experimental: as §1

[8] = tested on: pooled sera of uninfected people, Bolivia
Experimental: as §1

[9] = tested on: pooled sera of uninfected people, Brazil
Experimental: as §1

[10] = tested on: pooled sera of uninfected people, Colombia
Experimental: as §1

[11] = tested on: pooled sera of uninfected people, Mexico
Experimental: as §1

[12] = tested on: pooled sera of uninfected people, USA
Experimental: as §1

Row | Sequence | antibody binding signal [1] | antibody binding signal [2] | antibody binding signal [3] | antibody binding signal [4] | antibody binding signal [5] | antibody binding signal [6] | antibody binding signal [7] | antibody binding signal [8] | antibody binding signal [9] | antibody binding signal [10] | antibody binding signal [11] | antibody binding signal [12]
1 | GKENKAAAGETPSQS | 6150 | 683 | 16500 | 11700 | 9570 | 20400 | 388 | 159 | 163 | 113 | 128 | 98
2 | PSGTDNKAATGGAPS | 23100 | 14100 | 45300 | 935 | 740 | 1770 | 476 | 735 | 2070 | 361 | 320 | 236
3 | GTDNKAATGEAPSQP | 25200 | 41200 | 44700 | 152 | 277 | 28700 | 199 | 519 | 1180 | 120 | 124 | 82.3
4 | TEKKAAAGGTPSPSG | 813 | 207 | 190 | 7480 | 725 | 2720 | 111 | 111 | 2490 | 208 | 212 | 713
5 | NKTATGEAPSPSGAS | 6200 | 34300 | 18100 | 191 | 584 | 20500 | 429 | 683 | 554 | 247 | 157 | 956
6 | KENKPAAGGAPSPPG | 183 | 244 | 2530 | 945 | 368 | 916 | 249 | 234 | 139 | 127 | 126 | 160
7 | KEKKTATGEAPSQSG | 6940 | 5020 | 9360 | 260 | 526 | 14800 | 188 | 75 | 218 | 81.2 | 110 | 93.2
8 | PSGTEKKAATGGAPS | 12000 | 400 | 3220 | 3850 | 5150 | 4340 | 839 | 609 | 116 | 915 | 202 | 369
9 | GTDNKPATGGTPSQS | 1710 | 805 | 42900 | 1660 | 685 | 548 | 300 | 1080 | 753 | 252 | 651 | 161
10 | KDNKAATGGTPSPPG | 261 | 623 | 317 | 260 | 271 | 258 | 175 | 798 | 237 | 152 | 106 | 103
11 | NKTAAGGTPSQPGAS | 1330 | 289 | 2880 | 6820 | 636 | 1670 | 812 | 1050 | 1250 | 504 | 2030 | 1330
12 | TEKKAATGEAPSPSG | 23000 | 36900 | 26800 | 317 | 510 | 24300 | 633 | 152 | 237 | 602 | 184 | 289
13 | SGTEKKAATGETPSQ | 2270 | 2310 | 14900 | 286 | 327 | 10600 | 632 | 432 | 221 | 693 | 149 | 213
14 | SGTEKKPATGGAPSP | 5720 | 1980 | 5460 | 2600 | 3190 | 3960 | 569 | 1520 | 377 | 185 | 468 | 1340
15 | DKKAATGGAPSPPGA | 875 | 253 | 429 | 1850 | 1000 | 1440 | 459 | 388 | 118 | 800 | 130 | 145
16 | KKAAAGGAPSQPGAS | 274 | 249 | 778 | 2130 | 214 | 273 | 202 | 125 | 134 | 93.3 | 86.4 | 195
17 | GTDKKAAAGEAPSQS | 490 | 4080 | 10700 | 2660 | 606 | 11600 | 106 | 359 | 99.6 | 91.7 | 238 | 125
18 | PSGKEKKTAAGEAPS | 8640 | 1770 | 8150 | 9160 | 10600 | 9130 | 659 | 494 | 95.9 | 987 | 128 | 114
19 | TDKKAAAGGTPSPSG | 1430 | 206 | 160 | 5840 | 499 | 1580 | 121 | 119 | 1210 | 173 | 118 | 208
20 | GTEKKAATGETPSPS | 4030 | 1740 | 8890 | 1350 | 2080 | 12400 | 547 | 783 | 319 | 674 | 486 | 2870
21 | SGTENKPATGGAPSQ | 45600 | 22800 | 35600 | 439 | 987 | 8760 | 745 | 1930 | 273 | 184 | 322 | 248
22 | NKTATGEAPSPPGAS | 5320 | 29900 | 19500 | 355 | 291 | 17900 | 524 | 1060 | 634 | 579 | 137 | 1220
23 | SGKEKKTAAGGTPSQ | 2420 | 295 | 2050 | 6630 | 4510 | 5240 | 138 | 124 | 412 | 109 | 169 | 120
24 | GKEKKAAAGGTPSQP | 1610 | 213 | 275 | 2440 | 2320 | 2770 | 156 | 73.5 | 526 | 93.4 | 169 | 116
25 | KPATGETPSPSGASS | 29600 | 27500 | 27300 | 232 | 3270 | 21700 | 251 | 620 | 331 | 156 | 1580 | 720
